The BET-seq Pho4 binding data (Le et al. 2018)
Some of the results follow. Values were computed here from the reads of four pooled replicates and scatter widely.

These sequences were tested against T1, Pho4 (S. cerevisiae) (UniProt P07270) (assay: relative binding free energy (BET-seq); higher = weaker binding). Conditions: reference: library average.
T1 sequence: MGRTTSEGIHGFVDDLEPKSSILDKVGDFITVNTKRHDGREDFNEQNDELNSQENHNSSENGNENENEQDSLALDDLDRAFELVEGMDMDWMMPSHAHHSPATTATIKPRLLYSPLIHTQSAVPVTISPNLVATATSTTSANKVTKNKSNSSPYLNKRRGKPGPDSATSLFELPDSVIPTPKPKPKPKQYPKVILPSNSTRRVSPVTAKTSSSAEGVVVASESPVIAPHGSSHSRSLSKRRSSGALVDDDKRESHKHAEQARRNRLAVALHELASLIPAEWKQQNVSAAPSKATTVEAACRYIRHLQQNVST

Sequence	relative binding free energy [kcal/mol]
TGGTCCACGTGGTGTT	0.09
CTGAGCACGTGGGAGA	-0.11
TAAGTCACGTGGGGGT	-0.02
CGATACACGTGTGGTT	0.04
GTTTTCACGTGCTAAG	0.2
GTTTACACGTGGTTTA	0.17
AAGTACACGTGTAGTA	0.07
ATCGGCACGTGTGATT	0.03
TTGGACACGTGGTTGG	0.1
GTCGGCACGTGCGGTA	-0.04
ATGATCACGTGTTTTC	0.08
ATACGCACGTGATAGT	0.06
AGTATCACGTGAGGCG	0.23
TGTGGCACGTGCCGTT	-0.16
TGTAACACGTGGATAT	-0.02
AGTGTCACGTGGATGC	0.06
GTTGTCACGTGAACGT	0.2
GCGGGCACGTGTGTCA	0.07
GAAGTCACGTGTGCGA	0.2
GGGGTCACGTGGAAAG	0.2
TATTTCACGTGGCGAT	0.15
GGTAGCACGTGGGAGA	-0.11
ATGGCCACGTGGTGGA	-0.19

Sequence	relative binding free energy [kcal/mol]
CTAAGCACGTGGGTTA	-0.24
GAGGGCACGTGTACGT	0
GGTTTCACGTGGTACG	0.23
TGTATCACGTGTGGCA	0.24
GGGGGCACGTGCTGGG	-0.17
AATTACACGTGCTTTT	0.14
TGATGCACGTGTGAGA	0.13
ATGCTCACGTGTAGTA	0.3
TGGTTCACGTGTCGAG	0.39
GGGGACACGTGTATGA	-0.05
GGACACACGTGTTTTG	0.16
CGTTGCACGTGGAAAT	0.27
ATTTCCACGTGTAATA	0.33
TGATACACGTGTGATA	0.05
TGCGTCACGTGTTCGG	0.08
AGTAGCACGTGGTTAT	-0.06
AGGAGCACGTGCGGGC	-0.12
GCTGTCACGTGTGGTG	0.13
ATAGTCACGTGGGTGG	-0.04
CGATGCACGTGTGGGT	0.04
AAGAGCACGTGACGGG	-0.01
AGTGTCACGTGCTTAT	-0.09
CTCGGCACGTGGTTAG	-0.1

Sequence	relative binding free energy [kcal/mol]
ATTATCACGTGGTCGA	0.08
TGATACACGTGTTGAT	-0.05
AGCTGCACGTGAATGT	0.23
TAGTACACGTGTGATA	0.02
GGAATCACGTGGATAG	0.2
AATTGCACGTGTATGG	-0.08
CGTGGCACGTGGGAGA	-0.1
ATATGCACGTGGGTGG	-0.11
CGCGTCACGTGTAGTG	0.19
GAAGGCACGTGGGGTA	-0.15
ATGGACACGTGAGGTG	0.12
GTTAACACGTGCGTGT	-0.04
TGTGGCACGTGATTAT	-0.08
CTAGGCACGTGGTAAG	-0.17
TATTACACGTGGATTT	0.03
CAAGGCACGTGAGGTT	0.17
GCAGTCACGTGGTATA	0.06
GGTGGCACGTGGCGGT	-0.09
ATAGACACGTGTTGGT	-0.05
GGTCTCACGTGAGGGA	0.3
CGTGTCACGTGAGTTG	0.37
GGTTTCACGTGTTGCT	0.44
CTTTGCACGTGCGGGA	0.03

Sequence	relative binding free energy [kcal/mol]
AACTGCACGTGGTCGG	0
GGTGACACGTGACGTT	0.22
ATATGCACGTGTGAGT	0.01
TGGGTCACGTGGCTTG	0.13
TGTTTCACGTGACGCT	0.19
TGAGTCACGTGGCGTG	0.06
TGGATCACGTGAATAG	0.26
TTGAGCACGTGCAAGG	-0.01
ACATGCACGTGGTGGA	-0.12
TGACTCACGTGTAGGG	-0.07
TGGCACACGTGAGAGG	0.27
ATCTGCACGTGGTGTA	-0.02
TCGGGCACGTGTTATG	-0.05
ATTTTCACGTGAAGTG	0.27
GGTGGCACGTGGTGGT	-0.01
ATAAACACGTGGTGTA	-0.03
TTGAACACGTGGGGAC	0.12
ACGTGCACGTGTGGGA	-0.03
ATGAACACGTGGATGA	0.05
TGTCACACGTGGTTCG	0.15
GGGGACACGTGTACGG	0.04
TTAGTCACGTGATGGA	0.2
GGCGACACGTGTGGGA	0.14

Sequence	relative binding free energy [kcal/mol]
AGCTGCACGTGCGGTG	-0.1
GGGGGCACGTGAGCGC	-0.07
TTTAGCACGTGCGTAG	-0.12
ATTCACACGTGTGGTG	0.11
CGGTTCACGTGTGGAC	0.37
TTTAACACGTGAGGCG	0.23
ATCGGCACGTGGGAGC	-0.1
GTTTTCACGTGGAGTA	0.29
TGTTACACGTGTGATA	0.27
AATGACACGTGGTGTG	-0.25
GATAGCACGTGTGAGA	0
GGTGGCACGTGTGCAT	-0.07
TGTAACACGTGGATTT	0.04
GCGCACACGTGGGGTG	-0.26
CGGTGCACGTGTGGGA	-0.12
CTTTTCACGTGGGCTG	0.2
AATTCCACGTGGGGGG	-0.03
TGGTGCACGTGCTTTT	-0.08
TTTGTCACGTGGCGTG	0.04
TTATTCACGTGGGAGC	0.16
TGCTACACGTGATTGT	0.09
TGGGGCACGTGCCTGG	-0.22
GGTTGCACGTGAACGT	0.29
